# From PMC6028381, “Destabilization of linker histone H1.2 is essential for ATM activation and DNA damage repair” (Cell Research, 2018)
# T1: HIS-ATM fragment 7 (F7, 1239–1770 aa) (UniProt Q13315 1239-1770)
# T1 construct: also called HIS-ATM F7; source: E. coli BL21, purified (HIS agarose beads)
# T1 sequence (looked up): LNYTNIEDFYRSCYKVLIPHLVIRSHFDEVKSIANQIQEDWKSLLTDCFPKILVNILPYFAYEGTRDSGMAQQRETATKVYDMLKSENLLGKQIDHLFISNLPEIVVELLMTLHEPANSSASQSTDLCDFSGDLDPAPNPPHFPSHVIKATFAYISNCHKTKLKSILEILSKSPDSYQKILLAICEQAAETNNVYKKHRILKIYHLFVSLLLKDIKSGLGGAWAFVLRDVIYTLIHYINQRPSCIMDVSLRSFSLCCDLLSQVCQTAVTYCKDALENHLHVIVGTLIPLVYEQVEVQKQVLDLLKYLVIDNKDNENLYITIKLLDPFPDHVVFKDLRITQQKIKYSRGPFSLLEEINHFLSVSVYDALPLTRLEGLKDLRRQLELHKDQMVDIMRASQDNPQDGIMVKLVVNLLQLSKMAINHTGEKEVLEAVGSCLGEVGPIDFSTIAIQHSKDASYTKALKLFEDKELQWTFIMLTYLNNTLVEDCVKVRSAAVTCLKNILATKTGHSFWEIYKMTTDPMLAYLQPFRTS
# Experiments:
# [1] = molecular target: T1, HIS-ATM fragment 7 (F7, 1239–1770 aa); assay: pull-down; GST pull-down: equal amounts of HIS-fusion protein incubated with GST-fusion proteins (from E. coli) in TEN buffer (10 mM Tris-HCl pH 8.0, 1 mM EDTA, 100 mM NaCl), 4 h, 4 °C; immunoblot; for H1.2-MRE11 also with benzonase; settings: both partners purified
# FLAG-ATM (full-length) = molecular target: T2, FLAG-ATM (full-length) (UniProt Q13315 1-3056); assay: pull-down; FLAG-ATM immunoprecipitated from HEK293T cells on FLAG-conjugated M2 beads, incubated with or without recombinant HIS-H1.2 in kinase buffer, then with recombinant HIS-H2AX and GST-p53 (1–99) without ATP; eluted, immunoblot; settings: both partners purified
# T2 construct: ATM, full-length FLAG-ATM expression construct purchased from Addgene; also called purified ATM protein
# FLAG-ATM (full-length), sequence (Q13315 whole entry, the tested form may be a part): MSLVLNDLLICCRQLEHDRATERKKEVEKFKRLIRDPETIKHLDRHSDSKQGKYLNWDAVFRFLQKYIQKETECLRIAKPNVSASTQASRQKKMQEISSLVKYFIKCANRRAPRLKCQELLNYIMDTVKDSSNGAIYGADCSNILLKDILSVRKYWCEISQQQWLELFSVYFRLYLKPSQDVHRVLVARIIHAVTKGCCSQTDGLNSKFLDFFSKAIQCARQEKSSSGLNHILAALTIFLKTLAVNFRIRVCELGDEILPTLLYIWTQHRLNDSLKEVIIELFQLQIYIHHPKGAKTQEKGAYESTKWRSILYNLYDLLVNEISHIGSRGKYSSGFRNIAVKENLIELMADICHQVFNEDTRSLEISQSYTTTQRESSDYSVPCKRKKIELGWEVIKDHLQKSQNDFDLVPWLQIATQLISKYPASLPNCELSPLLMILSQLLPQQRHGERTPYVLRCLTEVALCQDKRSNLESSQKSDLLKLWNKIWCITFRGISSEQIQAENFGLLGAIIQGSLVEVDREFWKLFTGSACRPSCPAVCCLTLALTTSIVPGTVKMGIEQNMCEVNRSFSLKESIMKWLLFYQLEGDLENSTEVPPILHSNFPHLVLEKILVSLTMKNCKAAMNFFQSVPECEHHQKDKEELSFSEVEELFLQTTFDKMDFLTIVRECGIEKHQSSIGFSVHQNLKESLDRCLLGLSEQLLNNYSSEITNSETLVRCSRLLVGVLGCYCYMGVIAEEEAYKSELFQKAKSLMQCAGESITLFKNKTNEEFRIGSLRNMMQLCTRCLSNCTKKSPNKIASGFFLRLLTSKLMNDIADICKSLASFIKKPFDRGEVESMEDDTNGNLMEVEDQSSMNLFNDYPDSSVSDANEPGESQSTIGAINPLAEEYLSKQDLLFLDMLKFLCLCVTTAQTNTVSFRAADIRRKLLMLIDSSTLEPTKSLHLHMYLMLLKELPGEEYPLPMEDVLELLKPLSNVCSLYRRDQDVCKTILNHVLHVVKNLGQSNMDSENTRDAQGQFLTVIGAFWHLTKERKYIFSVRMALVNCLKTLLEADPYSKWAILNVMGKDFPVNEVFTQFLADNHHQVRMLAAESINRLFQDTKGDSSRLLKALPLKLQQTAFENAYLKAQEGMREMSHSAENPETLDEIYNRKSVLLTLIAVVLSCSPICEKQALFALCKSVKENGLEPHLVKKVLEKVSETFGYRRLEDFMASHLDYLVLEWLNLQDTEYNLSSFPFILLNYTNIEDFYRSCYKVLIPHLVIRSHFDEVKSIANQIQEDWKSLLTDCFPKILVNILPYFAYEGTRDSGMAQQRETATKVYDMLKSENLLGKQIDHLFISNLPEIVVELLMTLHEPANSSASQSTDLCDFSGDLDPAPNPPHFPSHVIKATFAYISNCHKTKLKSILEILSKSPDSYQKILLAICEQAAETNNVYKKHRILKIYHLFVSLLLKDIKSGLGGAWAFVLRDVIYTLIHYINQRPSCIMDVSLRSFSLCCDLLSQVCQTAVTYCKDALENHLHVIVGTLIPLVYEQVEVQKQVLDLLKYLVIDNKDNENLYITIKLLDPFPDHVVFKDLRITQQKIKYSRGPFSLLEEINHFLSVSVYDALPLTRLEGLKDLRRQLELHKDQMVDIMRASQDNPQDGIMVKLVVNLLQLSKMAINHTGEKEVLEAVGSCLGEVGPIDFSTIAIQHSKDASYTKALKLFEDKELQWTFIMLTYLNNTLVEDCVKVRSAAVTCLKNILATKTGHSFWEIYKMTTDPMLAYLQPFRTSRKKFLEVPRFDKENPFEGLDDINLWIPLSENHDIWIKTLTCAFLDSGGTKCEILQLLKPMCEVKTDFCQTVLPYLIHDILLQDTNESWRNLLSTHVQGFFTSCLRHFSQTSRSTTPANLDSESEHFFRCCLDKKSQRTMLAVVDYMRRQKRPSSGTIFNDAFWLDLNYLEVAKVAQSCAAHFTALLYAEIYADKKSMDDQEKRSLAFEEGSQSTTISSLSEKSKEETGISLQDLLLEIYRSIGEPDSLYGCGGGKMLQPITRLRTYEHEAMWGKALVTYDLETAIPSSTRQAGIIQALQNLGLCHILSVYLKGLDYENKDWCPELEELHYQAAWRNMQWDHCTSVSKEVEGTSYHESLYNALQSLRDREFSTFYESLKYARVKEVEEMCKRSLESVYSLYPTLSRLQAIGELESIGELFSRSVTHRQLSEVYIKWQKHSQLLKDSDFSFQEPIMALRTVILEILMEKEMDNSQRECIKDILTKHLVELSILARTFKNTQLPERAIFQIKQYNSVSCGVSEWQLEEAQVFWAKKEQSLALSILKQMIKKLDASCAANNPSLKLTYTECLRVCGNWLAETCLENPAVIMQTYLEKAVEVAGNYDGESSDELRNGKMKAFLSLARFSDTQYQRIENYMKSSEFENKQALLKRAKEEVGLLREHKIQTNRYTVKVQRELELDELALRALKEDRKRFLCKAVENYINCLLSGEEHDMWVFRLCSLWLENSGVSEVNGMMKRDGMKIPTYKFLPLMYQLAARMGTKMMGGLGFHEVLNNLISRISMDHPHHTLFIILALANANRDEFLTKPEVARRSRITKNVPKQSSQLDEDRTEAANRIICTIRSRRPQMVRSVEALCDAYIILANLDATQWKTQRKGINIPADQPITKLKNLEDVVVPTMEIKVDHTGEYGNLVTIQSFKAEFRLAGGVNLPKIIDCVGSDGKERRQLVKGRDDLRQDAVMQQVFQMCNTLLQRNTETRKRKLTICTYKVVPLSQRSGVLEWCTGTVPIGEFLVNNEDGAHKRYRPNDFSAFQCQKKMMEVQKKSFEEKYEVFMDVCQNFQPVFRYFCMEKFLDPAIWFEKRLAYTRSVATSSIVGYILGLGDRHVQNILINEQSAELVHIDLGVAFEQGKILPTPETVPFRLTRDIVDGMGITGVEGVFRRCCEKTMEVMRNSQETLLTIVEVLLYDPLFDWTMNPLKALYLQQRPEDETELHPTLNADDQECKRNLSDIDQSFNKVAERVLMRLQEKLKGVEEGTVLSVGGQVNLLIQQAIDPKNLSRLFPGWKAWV
binding result [1],binding result (FLAG-ATM (full-length)),Binder
binds,,"GST-H1.2 C-terminal domain ([…] aa) (domain or fragment, also called GST-H1.2 fragment; source: E. coli BL21, purified (glutathione-Sepharose 4B)) not shown"
,binds,"GST-p53 ([…]) (domain or fragment, p53, N-terminal […]; also called N-terminal GST-p53 ([…] aa) peptide; source: recombinant; GST-tagged plasmids expressed in E. coli BL21, purified (glutathione-Sepharose 4B)) not shown"
